# In the supplement of paper PMC8728848:
# The list shows a part of the results.
# B1: Thrombomodulin (Mus musculus) (protein)
# chain: ALAKLQPTGSQCVEHECFALFQGPATFLDASQACQRLQGHLMTVRSSVAADVISLLLSQSSMDLGPWIGLQLPQGCDDPVHLGPLRGFQWVTGDNHTSYSRWARPNDQTAPLCGPLCVTVSTATEAAPGEPAWEEKPCETETQGFLCEFYFTASC
# Experiments:
# Test in all cases: glycan array binding signal (z-score within array); higher = stronger binding
# Settings in all cases: glycan notation: IUPAC condensed, linker removed
# [1] = molecular target: Fuc(a1-2)[Gal(a1-3)]Gal(b1-4)GlcNAc(b1-2)Man(a1-3)[Fuc(a1-2)[Gal(a1-3)]Gal(b1-4)GlcNAc(b1-2)Man(a1-6)]Man(b1-4)GlcNAc(b1-4)[Fuc(a1-6)]GlcNAc
# Procedure, shortened: (§1)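 The binding signal is a Z-score computed within each array and averaged over linkers. Arrays of the same protein sequence at different concentrations or buffers were also averaged together. Data originate from 3228 arrays in the Consortium for Functional Glycomics database, kept only where the protein sequence was available.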
# [2] = molecular target: Fuc(a1-2)[Gal(a1-3)]Gal(b1-4)GlcNAc(b1-3)GalNAc
# Procedure, shortened: as §1
# [3] = molecular target: Fuc(a1-2)[Gal(a1-3)]Gal(b1-4)GlcNAc(b1-3)[Fuc(a1-2)[Gal(a1-3)]Gal(b1-4)GlcNAc(b1-6)]GalNAc
# Procedure, shortened: as §1
# [4] = molecular target: Fuc(a1-2)[Gal(a1-3)]Gal(b1-4)GlcNAc(b1-6)GalNAc
# Procedure, shortened: as §1
# [5] = molecular target: Fuc(a1-2)[Gal(a1-3)]Gal(b1-4)[Fuc(a1-3)]Glc
# Procedure, shortened: as §1
# [6] = molecular target: Fuc(a1-2)[Gal(a1-3)]Gal(b1-4)[Fuc(a1-3)]GlcNAc
# Procedure, shortened: as §1
# [7] = molecular target: Fuc(a1-2)[Gal(a1-3)]Gal(b1-4)[Fuc(a1-3)]GlcNAc(b1-3)GalNAc
# Procedure, shortened: as §1
# [8] = molecular target: Fuc(a1-2)[Gal(a1-4)]Gal(b1-4)GlcNAc
# Procedure, shortened: as §1
# [9] = molecular target: Fuc(a1-2)[GalNAc(a1-3)]Gal
# Procedure, shortened: as §1
# [10] = molecular target: Fuc(a1-2)[GalNAc(a1-3)]Gal(b1-3)GalNAc(a1-3)[Fuc(a1-2)]Gal(b1-4)GlcNAc
# Procedure, shortened: as §1
# [11] = molecular target: Fuc(a1-2)[GalNAc(a1-3)]Gal(b1-3)GalNAc(b1-3)Gal(a1-4)Gal(b1-4)Glc
# Procedure, shortened: as §1
# [12] = molecular target: Fuc(a1-2)[GalNAc(a1-3)]Gal(b1-3)GlcNAc
# Procedure, shortened: as §1
# [13] = molecular target: Fuc(a1-2)[GalNAc(a1-3)]Gal(b1-3)GlcNAc(b1-2)Man(a1-3)[Fuc(a1-2)[GalNAc(a1-3)]Gal(b1-3)GlcNAc(b1-2)Man(a1-6)]Man(b1-4)GlcNAc(b1-4)GlcNAc
# Procedure, shortened: as §1
# [14] = molecular target: Fuc(a1-2)[GalNAc(a1-3)]Gal(b1-3)GlcNAc(b1-2)Man(a1-3)[Fuc(a1-2)[GalNAc(a1-3)]Gal(b1-3)GlcNAc(b1-2)Man(a1-6)]Man(b1-4)GlcNAc(b1-4)[Fuc(a1-6)]GlcNAc
# Procedure, shortened: as §1
# [15] = molecular target: Fuc(a1-2)[GalNAc(a1-3)]Gal(b1-3)GlcNAc(b1-3)GalNAc
# Procedure, shortened: as §1
# [16] = molecular target: Fuc(a1-2)[GalNAc(a1-3)]Gal(b1-3)GlcNAc(b1-6)GalNAc
# Procedure, shortened: as §1
# [17] = molecular target: Fuc(a1-2)[GalNAc(a1-3)]Gal(b1-4)Glc
# Procedure, shortened: as §1
# [18] = molecular target: Fuc(a1-2)[GalNAc(a1-3)]Gal(b1-4)GlcNAc
# Procedure, shortened: as §1
# [19] = molecular target: Fuc(a1-2)[GalNAc(a1-3)]Gal(b1-4)GlcNAc(b1-2)Man
# Procedure, shortened: as §1
# [20] = molecular target: Fuc(a1-2)[GalNAc(a1-3)]Gal(b1-4)GlcNAc(b1-2)Man(a1-3)[Fuc(a1-2)[GalNAc(a1-3)]Gal(b1-4)GlcNAc(b1-2)Man(a1-6)]Man(b1-4)GlcNAc(b1-4)GlcNAc
# Procedure, shortened: as §1
# [21] = molecular target: Fuc(a1-2)[GalNAc(a1-3)]Gal(b1-4)GlcNAc(b1-2)Man(a1-3)[Fuc(a1-2)[GalNAc(a1-3)]Gal(b1-4)GlcNAc(b1-2)Man(a1-6)]Man(b1-4)GlcNAc(b1-4)[Fuc(a1-6)]GlcNAc
# Procedure, shortened: as §1
# [22] = molecular target: Fuc(a1-2)[GalNAc(a1-3)]Gal(b1-4)GlcNAc(b1-3)Gal(b1-4)GlcNAc
# Procedure, shortened: as §1
# [23] = molecular target: Fuc(a1-2)[GalNAc(a1-3)]Gal(b1-4)GlcNAc(b1-3)Gal(b1-4)GlcNAc(b1-3)Gal(b1-4)GlcNAc
# Procedure, shortened: as §1
# [24] = molecular target: Fuc(a1-2)[GalNAc(a1-3)]Gal(b1-4)GlcNAc(b1-3)GalNAc
# Procedure, shortened: as §1
# [25] = molecular target: Fuc(a1-2)[GalNAc(a1-3)]Gal(b1-4)GlcNAc(b1-3)[Fuc(a1-2)[GalNAc(a1-3)]Gal(b1-4)GlcNAc(b1-6)]GalNAc
# Procedure, shortened: as §1
# [26] = molecular target: Fuc(a1-2)[GalNAc(a1-3)]Gal(b1-4)GlcNAc(b1-6)GalNAc
# Procedure, shortened: as §1
# [27] = molecular target: Fuc(a1-2)[GalNAc(a1-3)]Gal(b1-4)[Fuc(a1-3)]GlcNAc
# Procedure, shortened: as §1
# [28] = molecular target: Fuc(a1-2)[GalNAc(a1-3)]Gal(b1-4)[Fuc(a1-3)]GlcNAc(b1-3)GalNAc
# Procedure, shortened: as §1
# [29] = molecular target: Fuc(a1-2)[GalNAc(a1-4)]Gal(b1-4)GlcNAc
# Procedure, shortened: as §1
# [30] = molecular target: Fuc(a1-2)[GalNAc(b1-3)]Gal
# Procedure, shortened: as §1
# [31] = molecular target: Fuc(a1-3)GlcNAc
# Procedure, shortened: as §1
# [32] = molecular target: Fuc(a1-3)[Gal(b1-4)]Glc6S
# Procedure, shortened: as §1
# [33] = molecular target: Fuc(a1-3)[Gal(b1-4)]GlcNAc
# Procedure, shortened: as §1
# [34] = molecular target: Fuc(a1-3)[Gal(b1-4)]GlcNAc(b1-2)Man
# Procedure, shortened: as §1
# [35] = molecular target: Fuc(a1-3)[Gal(b1-4)]GlcNAc(b1-2)Man(a1-3)[Fuc(a1-3)[Gal(b1-4)]GlcNAc(b1-2)Man(a1-6)]Man(b1-4)GlcNAc(b1-4)GlcNAc
# Procedure, shortened: as §1
# [36] = molecular target: Fuc(a1-3)[Gal(b1-4)]GlcNAc(b1-2)Man(a1-3)[Fuc(a1-3)[Gal(b1-4)]GlcNAc(b1-2)Man(a1-6)]Man(b1-4)GlcNAc(b1-4)[Fuc(a1-6)]GlcNAc
# Procedure, shortened: as §1
# [37] = molecular target: Fuc(a1-3)[Gal(b1-4)]GlcNAc(b1-3)Gal(b1-3)[Fuc(a1-4)]GlcNAc
# Procedure, shortened: as §1
# [38] = molecular target: Fuc(a1-3)[Gal(b1-4)]GlcNAc(b1-3)Gal(b1-4)[Fuc(a1-3)]GlcNAc
# Procedure, shortened: as §1
# [39] = molecular target: Fuc(a1-3)[Gal(b1-4)]GlcNAc(b1-3)Gal(b1-4)[Fuc(a1-3)]GlcNAc(b1-3)Gal(b1-4)[Fuc(a1-3)]GlcNAc
# Procedure, shortened: as §1
# [40] = molecular target: Fuc(a1-3)[Gal(b1-4)]GlcNAc(b1-3)GalNAc
# Procedure, shortened: as §1
# [41] = molecular target: Fuc(a1-3)[Gal(b1-4)]GlcNAc(b1-6)GalNAc
# Procedure, shortened: as §1
# [42] = molecular target: Fuc(a1-3)[Gal(b1-4)]GlcNAc(b1-6)[Gal(b1-3)GlcNAc(b1-3)]Gal(b1-4)Glc
# Procedure, shortened: as §1
# [43] = molecular target: Fuc(a1-3)[Gal(b1-4)]GlcNAc6S
# Procedure, shortened: as §1
# [44] = molecular target: Fuc(a1-3)[Gal3S(b1-4)]Glc
# Procedure, shortened: as §1
# [45] = molecular target: Fuc(a1-3)[Gal3S(b1-4)]GlcNAc
# Procedure, shortened: as §1
binder,measurement,setting,value
B1,glycan array binding signal (z-score),[1],-0.116
same,glycan array binding signal (z-score),[2],0.002
same,glycan array binding signal (z-score),[3],5.4
same,glycan array binding signal (z-score),[4],-0.16
same,glycan array binding signal (z-score),[5],-0.271
same,glycan array binding signal (z-score),[6],-0.199
same,glycan array binding signal (z-score),[7],-0.095
same,glycan array binding signal (z-score),[8],0.154
same,glycan array binding signal (z-score),[9],-0.227
same,glycan array binding signal (z-score),[10],0.021
same,glycan array binding signal (z-score),[11],-0.176
same,glycan array binding signal (z-score),[12],0.149
same,glycan array binding signal (z-score),[13],-0.081
same,glycan array binding signal (z-score),[14],0.01
same,glycan array binding signal (z-score),[15],0.368
same,glycan array binding signal (z-score),[16],-0.493
same,glycan array binding signal (z-score),[17],-0.15
same,glycan array binding signal (z-score),[18],-0.186
same,glycan array binding signal (z-score),[19],-0.381
same,glycan array binding signal (z-score),[20],-0.083
same,glycan array binding signal (z-score),[21],-0.196
same,glycan array binding signal (z-score),[22],-0.368
same,glycan array binding signal (z-score),[23],-0.007
same,glycan array binding signal (z-score),[24],-0.346
same,glycan array binding signal (z-score),[25],-0.256
same,glycan array binding signal (z-score),[26],-0.28
same,glycan array binding signal (z-score),[27],-0.298
same,glycan array binding signal (z-score),[28],-0.197
same,glycan array binding signal (z-score),[29],-0.109
same,glycan array binding signal (z-score),[30],-0.108
same,glycan array binding signal (z-score),[31],-0.027
same,glycan array binding signal (z-score),[32],0.318
same,glycan array binding signal (z-score),[33],-0.053
same,glycan array binding signal (z-score),[34],-0.518
same,glycan array binding signal (z-score),[35],-0.108
same,glycan array binding signal (z-score),[36],-0.197
same,glycan array binding signal (z-score),[37],-0.58
same,glycan array binding signal (z-score),[38],-0.348
same,glycan array binding signal (z-score),[39],-0.183
same,glycan array binding signal (z-score),[40],-0.145
same,glycan array binding signal (z-score),[41],-0.091
same,glycan array binding signal (z-score),[42],-0.344
same,glycan array binding signal (z-score),[43],0.478
same,glycan array binding signal (z-score),[44],-0.071
same,glycan array binding signal (z-score),[45],-0.161
